These results are taken from the supplement of paper PMC12462457.

Counter-ions that a name gives are not always drawn. ± gives the standard deviation of the averaged measurements. The list shows a part of the results.

The test relates to OVCAR8. Description: cell count relative to DMSO vehicle (fold change); OVCAR8 is a high-grade serous ovarian cancer line and CX-5461 an RNA polymerase I inhibitor; higher = more surviving senescent cells (less killing). The note with it: senescence inducer: CX-5461 3 µM 48 h, then 6 d recovery (CX senescent), exposure time 24 h.

Turning to `CC1(C)CC[C@]2(NC(=O)C(C)(F)F)CC[C@]3(C)[C@H](C(=O)C=C4[C@@]5(C)C=C(C#N)C(=O)C(C)(C)[C@@H]5CC[C@]43C)[C@@H]2C1` [Omaveloxolone], the cell count by setting is: (compound dose 1 µM) 0.94 ± 0.0057; (compound dose 5 µM) 0.002 ± 0.0028.
For `O=C(NNc1nc2cc(F)ccc2n2cccc12)c1cnccn1` the same measures were 1.27 ± 0.019 and 1.2245 ± 0.00071.
For `CCN1C(=O)C=CC1=O` [N-Ethylmaleimide], in that order: 1.06 ± 0.15 and 1.03 ± 0.11.
For `COc1ccc2[nH]cc(/C=C3\C(=O)Nc4ccc(NC(=O)CCN5CCCCC5)cc43)c2c1`, in that order: 1.13 ± 0.064 and 0.831 ± 0.051.
As to `Cc1nnc(NC(=O)c2nc(S(=O)(=O)Cc3ccc(F)cc3)ncc2Cl)s1`, the cell count runs as follows: (compound dose 1 µM) 0.99 ± 0.045; (compound dose 5 µM) 0.425 ± 0.04.
Turning to `C[C@H](Nc1ccc2c(c1)OCCn1cc(N3C(=O)OC[C@H]3C(F)F)nc1-2)C(N)=O`, the cell count reads like this: (compound dose 1 µM) 1.13 ± 0.17; (compound dose 5 µM) 1.1 ± 0.083.
As to `CC1(C)C=C(CN2C/C(=C\c3ccc(F)cc3)C(=O)/C(=C/c3ccc(F)cc3)C2)C(C)(C)N1O`, the cell count by setting is: (compound dose 1 µM) 1.15 ± 0.24; (compound dose 5 µM) 1.06 ± 0.19.
For the compound `COc1ccc(-c2cc(Nc3ccnc(N4CCOCC4)n3)on2)cc1`, the cell count worked out at 1.2 ± 0.15 (compound dose 1 µM) and 1.068 ± 0.0028 (compound dose 5 µM).
For `COc1ccc(/C=C/c2cc(O)cc(O[C@@H]3O[C@H](CO)[C@@H](O)[C@H](O)[C@H]3O)c2)cc1O` [Rhapontin], in that order: 1.08 ± 0.087 and 1.21 ± 0.051.
For `Cc1c2c(nn1C)CSCc1cc(n(C)n1)CSc1cc(c3ccccc3c1)OCCCc1c(C(=O)O)n(C)c3c-2c(Cl)ccc13` the same measures were 1.187 ± 0.0021 and 1.22 ± 0.049.
For `COc1ccc(-c2ccc3cc(C(=O)O)ccc3c2)cc1C12CC3CC(CC(C3)C1)C2`, in that order: 1.19 ± 0.084 and 1.22 ± 0.081.
The compound `C=CCNC1=C2C[C@@H](C)C[C@H](OC)[C@H](O)[C@@H](C)/C=C(\C)[C@H](OC(N)=O)[C@@H](OC)/C=C\C=C(/C)C(=O)NC(=CC1=O)C2=O` [Tanespimycin] gave a cell count (compound dose 1 µM) of 1.19 ± 0.27 and a cell count (compound dose 5 µM) of 1.08 ± 0.24.
For `CNc1nc(C)c(-c2nc(Nc3cccc(S(N)(=O)=O)c3)ncc2F)s1` the same measures were 1.19 ± 0.23 and 1.14 ± 0.028.
Regarding `CN1C(=O)NC(Cc2c[nH]c3c(Cl)cccc23)C1=O` (racemic) [Necrostatin 2 (racemate)], the cell count by setting is: (compound dose 1 µM) 1.12 ± 0.18; (compound dose 5 µM) 0.929 ± 0.088.
For `O=C(CCl)NCc1cccc2c1C(=O)N(C1CCC(=O)NC1=O)C2=O` (stereo not drawn) the same measures were 1.02 ± 0.18 and 0.901 ± 0.16.
For `O=C1Nc2ccccc2C1=O` [Isatin] the same measures were 1.16 ± 0.1 and 0.941 ± 0.16.
For `COc1ccc(-c2cc(=O)c3c(OC)c(OC)c(OC)c(OC)c3o2)cc1`, in that order: 1.12 ± 0.085 and 0.991 ± 0.0071.
For the compound `CO[C@H]1C[C@@H]2CC[C@@H](C)[C@@](O)(O2)C(=O)C(=O)N2CCCC[C@H]2C(=O)O[C@H]([C@H](C)C[C@@H]2CC[C@@H](OC(=O)C(C)(CO)CO)[C@H](OC)C2)CC(=O)[C@H](C)/C=C(\C)[C@@H](O)[C@@H](OC)C(=O)[C@H](C)C[C@H](C)/C=C/C=C/C=C/1C` [Temsirolimus], the cell count is, setting by setting: (compound dose 1 µM) 1.17 ± 0.3; (compound dose 5 µM) 1.2 ± 0.28.
Take `COc1ccc(-c2cc(=O)c3c(OC)c(OC)c(OC)c(OC)c3o2)cc1OC`: the cell count is 1.009 ± 0.0057 (compound dose 1 µM) and 0.875 ± 0.076 (compound dose 5 µM).
For `Cn1nnc2c(C(N)=O)ncn2c1=O` the same measures were 1.14 ± 0.19 and 1.11 ± 0.14.
For `C=C1C(=O)O[C@H]2[C@H]1CC/C(C)=C/CC[C@@]1(C)O[C@@H]21` [Parthenolide] the same measures were 0.963 ± 0.025 and 0.957 ± 0.067.
For `COc1ccc(-c2cc3nccn3c(Nc3ncccc3C(N)=O)n2)cc1OC` [BAY 61-3606 (dihydrochloride)] the same measures were 0.873 ± 0.011 and 0.577 ± 0.042.
As to `COCCOc1cnc(Sc2cc(C)c(-c3csc(NC(=O)c4ccncc4)n3)c(C)c2)cn1` [T-1101 (tosylate)], the cell count by setting is: (compound dose 1 µM) 1.16 ± 0.33; (compound dose 5 µM) 1.18 ± 0.31.
Consider `Cc1ccc(C(=O)Cn2c3c(sc2=N)CCCC3)cc1` [Pifithrin-α (hydrobromide)], for which the cell count (compound dose 1 µM) is 1.08 ± 0.13 and the cell count (compound dose 5 µM) was determined as 0.985 ± 0.016.
For `CNC(=O)[C@H]1O[C@@H](n2cnc3c(NCc4ccc(I)cc4)ncnc32)[C@H](O)[C@@H]1O` [Piclidenoson], in that order: 1.02 ± 0.23 and 0.429 ± 0.024.
For `Cn1cnc2c(F)c(Nc3ccc(Br)cc3Cl)c(C(=O)NOCCO)cc21` [Selumetinib (AZD6244)] the same measures were 1.24 ± 0.23 and 1.25 ± 0.018.
For `CC1(C)O[C@@H]2C[C@H]3[C@@H]4C[C@H](F)C5=CC(=O)C=C[C@]5(C)[C@H]4[C@@H](O)C[C@]3(C)[C@]2(C(=O)CO)O1` [Flunisolide] the same measures were 1.19 ± 0.4 and 1.02 ± 0.07.
The compound `CCOC(=O)c1c2c3c(cccc3[nH]c1=O)C(=O)c1ccccc1-2` displayed a cell count (compound dose 1 µM) of 0.959 ± 0.026 and a cell count (compound dose 5 µM) of 0.974 ± 0.1.
For `COc1ccc(-c2cc(=O)c3c(OC)cc(OC)cc3o2)cc1` the same measures were 1.1 ± 0.12 and 1.03 ± 0.15.
For `CC(ONC(=O)c1cc(C(F)(F)F)cc(C(F)(F)F)c1)C(=O)Nc1ccc(Cl)cc1` (stereo not drawn) the same measures were 1.06 ± 0.14 and 1.08 ± 0.26.
For `CCCCC[C@H](CC(=O)NO)C(=O)N[C@H](C(=O)N1CCC[C@H]1CO)C(C)C` [Actinonin] the same measures were 1.12 ± 0.33 and 1.14 ± 0.13.
As for `Oc1ccc(C2=Cc3ccc(O)cc3OC2)cc1` [Phenoxodiol], the cell count is, setting by setting: (compound dose 1 µM) 1.09 ± 0.15; (compound dose 5 µM) 1.08 ± 0.1.
For `O=C(O)c1cc(O)c(O)c(O)c1` the same measures were 1.16 ± 0.16 and 1.22 ± 0.03.
Take `COc1cc(C(=O)O)cc(O)c1O` [3-O-Methylgallic acid]: the cell count turned out to be 1.15 ± 0.14 (compound dose 1 µM) and 1.07 ± 0.022 (compound dose 5 µM).
